The record followed here is publication PMC7977449.

Sequences of proteins named here, by UniProt entry; tags and fusion partners are left off.
UniProt P42224: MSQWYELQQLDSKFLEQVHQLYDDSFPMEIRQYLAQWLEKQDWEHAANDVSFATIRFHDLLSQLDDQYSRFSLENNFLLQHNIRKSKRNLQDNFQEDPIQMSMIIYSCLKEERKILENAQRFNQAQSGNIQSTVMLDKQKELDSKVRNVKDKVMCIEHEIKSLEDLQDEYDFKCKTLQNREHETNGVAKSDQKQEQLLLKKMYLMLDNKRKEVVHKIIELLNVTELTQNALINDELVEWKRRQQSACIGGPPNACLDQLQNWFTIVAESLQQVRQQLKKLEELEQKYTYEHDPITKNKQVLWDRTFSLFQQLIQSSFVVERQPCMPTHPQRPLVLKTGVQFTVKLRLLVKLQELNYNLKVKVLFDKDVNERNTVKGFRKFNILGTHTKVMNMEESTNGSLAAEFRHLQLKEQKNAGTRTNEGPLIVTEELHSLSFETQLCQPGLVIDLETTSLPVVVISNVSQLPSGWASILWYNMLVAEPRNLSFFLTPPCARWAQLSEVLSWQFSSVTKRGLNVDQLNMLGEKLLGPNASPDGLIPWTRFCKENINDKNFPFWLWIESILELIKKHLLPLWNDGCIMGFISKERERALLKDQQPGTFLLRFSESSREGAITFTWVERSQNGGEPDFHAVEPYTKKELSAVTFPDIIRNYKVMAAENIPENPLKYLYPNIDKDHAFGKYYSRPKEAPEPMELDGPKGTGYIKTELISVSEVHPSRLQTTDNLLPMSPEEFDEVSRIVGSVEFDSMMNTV
UniProt P40763: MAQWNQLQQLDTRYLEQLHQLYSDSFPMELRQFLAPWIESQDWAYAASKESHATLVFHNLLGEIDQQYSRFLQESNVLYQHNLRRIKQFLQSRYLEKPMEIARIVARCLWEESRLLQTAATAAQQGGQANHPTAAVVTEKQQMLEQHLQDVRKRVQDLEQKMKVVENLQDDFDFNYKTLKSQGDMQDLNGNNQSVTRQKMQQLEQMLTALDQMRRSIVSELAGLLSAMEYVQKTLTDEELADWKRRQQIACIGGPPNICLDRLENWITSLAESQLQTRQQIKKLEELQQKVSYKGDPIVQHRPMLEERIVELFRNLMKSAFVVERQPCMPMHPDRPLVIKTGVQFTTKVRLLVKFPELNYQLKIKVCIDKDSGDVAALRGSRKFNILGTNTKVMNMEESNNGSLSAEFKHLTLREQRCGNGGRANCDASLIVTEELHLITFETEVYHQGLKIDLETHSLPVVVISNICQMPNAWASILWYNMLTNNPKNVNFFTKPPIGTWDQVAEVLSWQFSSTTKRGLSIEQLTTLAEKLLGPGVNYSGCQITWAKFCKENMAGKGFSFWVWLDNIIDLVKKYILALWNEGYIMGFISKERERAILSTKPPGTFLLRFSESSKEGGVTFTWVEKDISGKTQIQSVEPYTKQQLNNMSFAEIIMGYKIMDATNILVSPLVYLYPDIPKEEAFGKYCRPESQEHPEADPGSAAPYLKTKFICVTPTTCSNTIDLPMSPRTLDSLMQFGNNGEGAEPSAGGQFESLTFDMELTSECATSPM

The target in one test is myc-NLRC5 full length (UniProt Q86WI3). The experiment in a line: co-IP; HEK293T cells transfected with myc- and Flag-tagged plasmids; lysate immunoprecipitated with anti-myc or anti-Flag antibody, protein A/G agarose, western blot. (In general: A western blot detects proteins with antibodies after separation by electrophoresis.)
Test [1] concerns the target STAT1, endogenous in HUVECs (human (endogenous in HUVECs)) (UniProt P42224). The test is described as follows: co-IP; HUVECs stimulated with IFN-γ for 12 h; lysate immunoprecipitated with anti-STAT1 antibody, western blot.
The target in test [2] is signal transducer and activator of transcription 3 (STAT3), endogenous in HUVECs (human (endogenous in HUVECs)) (UniProt P40763). The experiment in a line: co-IP; HUVECs stimulated with VEGFA-165 for 0 or 12 h; lysate immunoprecipitated with anti-STAT3 antibody, protein A/G agarose, western blot.
For test [3], the target named is STAT1, endogenous in HUVECs (human (endogenous in HUVECs)) (UniProt P42224). The test is described as follows: condition: only HUVECs treated with VEGFA-165 instead of IFN-γ; co-IP; HUVECs stimulated with VEGFA-165 for 12 h; lysate immunoprecipitated with anti-STAT1 antibody, western blot.
For test [4], the target named is STAT3-Flag (UniProt P40763). The test is described as follows: co-IP; HEK293T cells transfected with myc- and Flag-tagged plasmids; lysate immunoprecipitated with anti-myc or anti-Flag antibody, protein A/G agarose, western blot.
Test [5] has as its target STAT3-Flag (UniProt P40763). Described as above. This is another data set of the same source.

Like-named read-outs stand apart in the source and are kept apart here. No constants are given. Whether binding was seen depends on the method and setting. In cells and extracts the contact can be indirect. Some binding calls cover weakened binding; strength is not graded here. For some assays here: Tags and fused reporters may be left off the sequences shown.

In the case of Flag-STAT1 (from UniProt P42224 1-750), in the test with myc-NLRC5 full length, the binding result was “binds”.

With “NLR family CARD domain containing 5 (NLRC5), endogenous in HUVECs (from UniProt Q86WI3 1-1866)”, the binding entry in test [1] is listed as “binds”; in test [2], “binds”; in test [3], “no binding”.

Consider “myc-NLRC5 full length (from UniProt Q86WI3 1-1866)”, for which the binding entry in the test with STAT3-Flag [4] was “binds”.

B1: myc-NLRC5 NACHT (222-539 aa) (domain or fragment, UniProt Q86WI3 222-539)
chain: RVTVLLGKAGMGKTTLAHRLCQKWAEGHLNCFQALFLFEFRQLNLITRFLTPSELLFDLYLSPESDHDTVFQYLEKNADQVLLIFDGLDEALQPMGPDGPGPVLTLFSHLCNGTLLPGCRVMATSRPGKLPACLPAEAAMVHMLGFDGPRVEEYVNHFFSAQPSREGALVELQTNGRLRSLCAVPALCQVACLCLHHLLPDHAPGQSVALLPNMTQLYMQMVLALSPPGHLPTSSLLDLGEVALRGLETGKVIFYAKDIAPPLIAFGATHSLLTSFCVCTGPGHQQTGYAFTHLSLQEFLAALHLMASPKVNKDTLTQ
Regarding B1, the binding entry with STAT3-Flag [5] is on record as “no binding”.

B2: myc-NLRC5 DD+NACHT (1-539 aa) (domain or fragment, UniProt Q86WI3 1-539)
chain: MDPVGLQLGNKNLWSCLVRLLTKDPEWLNAKMKFFLPNTDLDSRNETLDPEQRVILQLNKLHVQGSDTWQSFIHCVCMQLEVPLDLEVLLLSTFGYDDGFTSQLGAEGKSQPESQLHHGLKRPHQSCGSSPRRKQCKKQQLELAKKYLQLLRTSAQQRYRSQIPGSGQPHAFHQVYVPPILRRATASLDTPEGAIMGDVKVEDGADVSISDLFNTRVNKGPRVTVLLGKAGMGKTTLAHRLCQKWAEGHLNCFQALFLFEFRQLNLITRFLTPSELLFDLYLSPESDHDTVFQYLEKNADQVLLIFDGLDEALQPMGPDGPGPVLTLFSHLCNGTLLPGCRVMATSRPGKLPACLPAEAAMVHMLGFDGPRVEEYVNHFFSAQPSREGALVELQTNGRLRSLCAVPALCQVACLCLHHLLPDHAPGQSVALLPNMTQLYMQMVLALSPPGHLPTSSLLDLGEVALRGLETGKVIFYAKDIAPPLIAFGATHSLLTSFCVCTGPGHQQTGYAFTHLSLQEFLAALHLMASPKVNKDTLTQ
As to B2, in the test with STAT3-Flag [5], the binding result was “binds”.

B3: myc-NLRC5 DD (1-221 aa) (domain or fragment, UniProt Q86WI3 1-221)
chain: MDPVGLQLGNKNLWSCLVRLLTKDPEWLNAKMKFFLPNTDLDSRNETLDPEQRVILQLNKLHVQGSDTWQSFIHCVCMQLEVPLDLEVLLLSTFGYDDGFTSQLGAEGKSQPESQLHHGLKRPHQSCGSSPRRKQCKKQQLELAKKYLQLLRTSAQQRYRSQIPGSGQPHAFHQVYVPPILRRATASLDTPEGAIMGDVKVEDGADVSISDLFNTRVNKGP
For B3, the binding result with STAT3-Flag [5] is “no binding”.
